Experimental data as given in publication PMC10726135.
This is one part of the list. At the low end of the ranking the order means little. The protein was read in a cell extract, so binding may be indirect.

The sequences below were run against T1, HNF4alpha2 (COS-7 nuclear extract) (UniProt P41235) (assay: protein-binding microarray). Details: COS-7 nuclear extract on double-stranded Agilent 4x180k PBM; binding buffer, salt, pH and temperature not given; high values mean tight binding; double strand, one strand shown; sequences stand for … in …GCCTAGGGAGATTAGAGTATCGGTCGA.
T1 sequence: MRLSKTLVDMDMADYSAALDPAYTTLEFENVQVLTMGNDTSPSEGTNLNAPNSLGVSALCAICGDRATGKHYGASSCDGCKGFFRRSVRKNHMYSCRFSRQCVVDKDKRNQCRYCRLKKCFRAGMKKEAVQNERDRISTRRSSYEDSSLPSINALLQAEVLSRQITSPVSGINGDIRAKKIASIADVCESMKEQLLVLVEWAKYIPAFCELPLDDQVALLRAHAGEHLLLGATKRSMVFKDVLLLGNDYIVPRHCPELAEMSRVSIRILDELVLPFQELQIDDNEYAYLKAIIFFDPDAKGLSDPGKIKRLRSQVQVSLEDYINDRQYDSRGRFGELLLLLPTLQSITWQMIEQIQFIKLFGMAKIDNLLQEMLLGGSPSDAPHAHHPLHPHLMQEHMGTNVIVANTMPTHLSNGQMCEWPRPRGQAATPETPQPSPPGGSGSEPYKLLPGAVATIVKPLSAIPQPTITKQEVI

Q: Which binding signal (log2 normalized intensity) does the source give for TTTCAAAGACAAATATCGACAAGCCAGATC here?
A: -1.2

Q: Which binding signal (log2 normalized intensity) does the source give for TGTTTCTGGAGAATGCTGTCCTGCCAGTTG here?
A: 0.812

Q: CAGCAAGCATTAATCCCTGAGCCTGGACCT was tested. Which binding signal (log2 normalized intensity) did it give?
A: 1.98

Q: Which binding signal (log2 normalized intensity) does the source give for CTTCCCATAAAACCTAGACAGAAGCTTTCT here?
A: -1.13

Q: For GGGGAATAAAGAACGCTCACAGAAAGAAGA, which binding signal (log2 normalized intensity) is on record?
A: -1.13

Q: Which binding signal (log2 normalized intensity) does the source give for AGGATTTACTTATACAGCGTCTAAGAAGAT here?
A: -1.13

Q: For CCAGTGGACTCTCTGTTTGATCAGCTGGTC, which binding signal (log2 normalized intensity) is on record?
A: 1.66

Q: How did the binding signal (log2 normalized intensity) turn out when AAACAGGTTCTTCCACGACTCCCCCGCTCA was run?
A: 3.17

Q: How did the binding signal (log2 normalized intensity) turn out when CTGCATTCCTCCTGGCCTCTCTGAGCAGCC was run?
A: -1.2

Q: Which binding signal (log2 normalized intensity) does the source give for CTTTCCACCCTGTTGCACAAGCTGTGTGGC here?
A: 0.784

Q: For GCATTTTGCAGACCTTGGTCAAAGTGACAC, which binding signal (log2 normalized intensity) is on record?
A: 1.79

Q: Which binding signal (log2 normalized intensity) does the source give for GGCCTGTGCTGGGGACAAAAGCTGAGTCCC here?
A: -1.12

Q: CTTGAGCACTAAAGAGGCTACCAGACCTTG was tested. Which binding signal (log2 normalized intensity) did it give?
A: -1.09

Q: For GGGCATAGCAGATAAGCATTGTGTGTGTTG, which binding signal (log2 normalized intensity) is on record?
A: 2.19

Q: For TGGGGGAAATTCTCAAAAGTTTTTCCCTTC, which binding signal (log2 normalized intensity) is on record?
A: 0.685

Q: For TCCAGAAGGTCAGGACCACACATTCCATTA, which binding signal (log2 normalized intensity) is on record?
A: -1.11

Q: CACACGGTGTCCAGATTCCAGCCTCCTGCT was tested. Which binding signal (log2 normalized intensity) did it give?
A: -1.11

Q: With GCAGTGGCGCAATCTCAGCTCAATCTCTGT as the sequence, how does the binding signal (log2 normalized intensity) read?
A: -1.18

Q: For ACCTGACTAAAACCTGCTGCAGGAGAGATG, which binding signal (log2 normalized intensity) is on record?
A: -1.13

Q: How did the binding signal (log2 normalized intensity) turn out when GGAGTTAGGGAAAAGATAAGGCGTAGTTCA was run?
A: 0.477

Q: For GGAATGCAGTGACATGATCAAAGTTCATTG, which binding signal (log2 normalized intensity) is on record?
A: 4.07

Q: For CTTGTCCAGGGACTTTGAACACTTCTTTGT, which binding signal (log2 normalized intensity) is on record?
A: 3.55

Q: Which binding signal (log2 normalized intensity) does the source give for TAGTTTTGTAACTTAAAGATCATGTTTGAG here?
A: 1.58

Q: Which binding signal (log2 normalized intensity) does the source give for TCTATCTCCCTGTGACCTCCAACTATTGCT here?
A: 0.84

Q: With GAACTTTGACTTATTTAGTAGTGGCAAGAG as the sequence, how does the binding signal (log2 normalized intensity) read?
A: 2.7

Q: How did the binding signal (log2 normalized intensity) turn out when CACAGCACTGTTTATTTTGTGTGATACTCA was run?
A: 1.54

Q: With GTCCAAGTCCAAAGGTCTGAGAACCAAGAG as the sequence, how does the binding signal (log2 normalized intensity) read?
A: 3.21

Q: How did the binding signal (log2 normalized intensity) turn out when TCGGCTCCATCTAGCAGCCCCAACCCACTG was run?
A: 2.95

Q: With AGTTCAGGCCTCGGCTTCATTAGCAAATAA as the sequence, how does the binding signal (log2 normalized intensity) read?
A: -1.12

Q: With TTCTGGCAAAGCCAATCTGCTTAAAGGCAA as the sequence, how does the binding signal (log2 normalized intensity) read?
A: -1.24

Q: GGGAAAAGATAAGATTATCTCGTCACCTTT was tested. Which binding signal (log2 normalized intensity) did it give?
A: 0.962

Q: With TCTCTGGTCGGGGAGGTGTTTATCTTGTGG as the sequence, how does the binding signal (log2 normalized intensity) read?
A: 1.75

Q: How did the binding signal (log2 normalized intensity) turn out when TCCTACTGACCTCCGACCCCACGGACTTAA was run?
A: 4.05

Q: For ATTCCTTCAGGAAGGCCTGTTAAAAACACG, which binding signal (log2 normalized intensity) is on record?
A: -1.15

Q: How did the binding signal (log2 normalized intensity) turn out when CAGGACCAGGTGTAGATAAACTGGAAAGGG was run?
A: -1.08

Q: For CATGAGAAACATGACACCCATCATGAGTAG, which binding signal (log2 normalized intensity) is on record?
A: -1.03

Q: Which binding signal (log2 normalized intensity) does the source give for AAGAAAAACAAGTGGAGTAGGATTTCTAGT here?
A: -1.06

Q: TATCTAGGGTCAAAGGGTCAAGTTCAGATC was tested. Which binding signal (log2 normalized intensity) did it give?
A: 5.2

Q: How did the binding signal (log2 normalized intensity) turn out when CCTGAGATGTCTGCTTCTTGGGTCAAAGTC was run?
A: 2.87

Q: With TATGCTCTCTCTCCACCTGGAGGGACTTTG as the sequence, how does the binding signal (log2 normalized intensity) read?
A: 2.59

Q: TGGTCCAAGGTACATGTCTCTGCTCCTAAA was tested. Which binding signal (log2 normalized intensity) did it give?
A: 1.08

Q: For GGCCTTTGGACCCAGACTGAATCACACTAC, which binding signal (log2 normalized intensity) is on record?
A: 3.76

Q: How did the binding signal (log2 normalized intensity) turn out when CCCCTACACAGAGGAGCGACCCAGGCAGCC was run?
A: -1.16

Q: TTCTTTTAGTGTGCTCTGGGTCTGTCCTTT was tested. Which binding signal (log2 normalized intensity) did it give?
A: 2.84

Q: For AACTGTACTTTGGACTGGGGACCTGGTCTG, which binding signal (log2 normalized intensity) is on record?
A: 4.13

Q: GGGTGGGGTTGGAGTCCAGAGTTCAGGTAG was tested. Which binding signal (log2 normalized intensity) did it give?
A: 2.87

Q: For GCATATCTAGAGTCTGACTACTTCTCACCA, which binding signal (log2 normalized intensity) is on record?
A: -0.102

Q: With TACTGAGAGGCCAGCTAAAACTGCAGATTG as the sequence, how does the binding signal (log2 normalized intensity) read?
A: -1.04

Q: Which binding signal (log2 normalized intensity) does the source give for AAACTCTGAAAGCACTAAGTTACCTCATCT here?
A: -1.12

Q: With AGTTCAGTCTTTATTGGTACGTTCCAATAT as the sequence, how does the binding signal (log2 normalized intensity) read?
A: 1.57

Q: With CTTTGACCTTACCAGCCCACTCTTAGCAGA as the sequence, how does the binding signal (log2 normalized intensity) read?
A: -1.18

Q: TTGGGTGAGTGTTAGAGCACCCTCTGGAGG was tested. Which binding signal (log2 normalized intensity) did it give?
A: -1.21

Q: For AAGTGCATACTCAAAGAATTTAACACCAGA, which binding signal (log2 normalized intensity) is on record?
A: -0.831

Q: For ACAGGGCAAAGGTGCCAGGTAATTCAAAGC, which binding signal (log2 normalized intensity) is on record?
A: -1.12

Q: Which binding signal (log2 normalized intensity) does the source give for AAGCAGGTTCACATTTTTGTCATCTTCACT here?
A: 0.599

Q: ATGAGCTAGAGCTCGTGTCATCTCTGGCTA was tested. Which binding signal (log2 normalized intensity) did it give?
A: -1.26

Q: Which binding signal (log2 normalized intensity) does the source give for CAGACTAGTATTGAGTTTGCTCTGCTACTA here?
A: -1.06

Q: With GATGTGTGAAGGACACAGAATGACTTTCAG as the sequence, how does the binding signal (log2 normalized intensity) read?
A: -0.81

Q: With GAAAGTCTTGATAAGAAACCCAAGATTTGG as the sequence, how does the binding signal (log2 normalized intensity) read?
A: -1.02

Q: For TGTCAAAATCTGATCTTTCCTCTAAGTGCC, which binding signal (log2 normalized intensity) is on record?
A: 0.598

Q: CATGCTCCCCACCCCCAACTTCCCCAACCC was tested. Which binding signal (log2 normalized intensity) did it give?
A: 6.67

Q: GATCCACGGAGAATGTAGACCTTTACCACC was tested. Which binding signal (log2 normalized intensity) did it give?
A: 1.74

Q: How did the binding signal (log2 normalized intensity) turn out when GCAGAGTGTCCCATATCACATTTTAAGGTC was run?
A: 1.97

Q: With CTCTGTGATAGCCTTTTACCTTGGCAGCCA as the sequence, how does the binding signal (log2 normalized intensity) read?
A: -0.515

Q: For GATACCTTCCTGAATGCCTAGGTGACAAGG, which binding signal (log2 normalized intensity) is on record?
A: 0.182

Q: GGTGAGGGTGGGCCTGGGGGGAGACAACTG was tested. Which binding signal (log2 normalized intensity) did it give?
A: -1.22

Q: Which binding signal (log2 normalized intensity) does the source give for GGTTAAGCCACCAAAAAGTAAATAGCCCCA here?
A: 3.15

Q: Which binding signal (log2 normalized intensity) does the source give for TTGACCTTCGAACCCTTGCCATTTACATCA here?
A: 5.38

Q: How did the binding signal (log2 normalized intensity) turn out when TTCTGCGGAAATAATTGATTCAGGTGAGCC was run?
A: 0.333

Q: For CTATGCCCTTTGAAATTCTGGACTTTCAAC, which binding signal (log2 normalized intensity) is on record?
A: 4.93

Q: Which binding signal (log2 normalized intensity) does the source give for CCAGCTCTTTACTCAGGTCATCAGGACTCT here?
A: 1.11

Q: With CTTTGACCTTTCCATAGTTCCGAGTTCCCT as the sequence, how does the binding signal (log2 normalized intensity) read?
A: 1.18

Q: How did the binding signal (log2 normalized intensity) turn out when CAAAGTCCTAGAGTCCCTATTTGCTTGTGA was run?
A: 0.906

Q: Which binding signal (log2 normalized intensity) does the source give for CCTCGGCTCGGCCCCAGTCCCCCGGACCAG here?
A: 3.59

Q: With GAATGTGTGATAAGGAACTGTGTAATAAGG as the sequence, how does the binding signal (log2 normalized intensity) read?
A: 1.16

Q: How did the binding signal (log2 normalized intensity) turn out when TTCTTAAACGTATGCCACATCACCTCTGAC was run?
A: 0.869

Q: Which binding signal (log2 normalized intensity) does the source give for CTTTTGGTGAGTCTTTGCCCCTGGACTTTG here?
A: 5.15

Q: For AAGTGGTGATTTCGTTGAAAGCTGCTTCCC, which binding signal (log2 normalized intensity) is on record?
A: -1.13

Q: With AGGGAATTTCTAGGTTTGATCTTTGCCCTA as the sequence, how does the binding signal (log2 normalized intensity) read?
A: 6.85

Q: TAATGAATAAGCACGTTAGAGAAAAAGCCC was tested. Which binding signal (log2 normalized intensity) did it give?
A: -1.2

Q: With CCAGGATCAAATACAGAATCAATGCCTGAT as the sequence, how does the binding signal (log2 normalized intensity) read?
A: -0.749

Q: With GTGGCCCCGAGATAAGGATTCCTGGAATGT as the sequence, how does the binding signal (log2 normalized intensity) read?
A: 1.23

Q: For GTCAGGACAAGGCTCTGGTGGGGAATGCTA, which binding signal (log2 normalized intensity) is on record?
A: -1.14

Q: For TCCTGCCCCCTGGAGGAGTGAGGGATGTTC, which binding signal (log2 normalized intensity) is on record?
A: 1.9

Q: With GGAGACCACTGGTGTAAGCTCTGGAGTCCA as the sequence, how does the binding signal (log2 normalized intensity) read?
A: 0.767

Q: With GGAGAATTTCACAAAGGGCAAAGTCCCCTT as the sequence, how does the binding signal (log2 normalized intensity) read?
A: 6.34

Q: With CAGCCTTTGGACTTTGAACTGCAACATCAG as the sequence, how does the binding signal (log2 normalized intensity) read?
A: 8.26

Q: How did the binding signal (log2 normalized intensity) turn out when GCAGGCCTGGGGGCAAAGTCAGGTACTGGT was run?
A: 0.527

Q: How did the binding signal (log2 normalized intensity) turn out when ACCTTTAGCACCGTAAGAGAGTATTTCCCA was run?
A: 1.13

Q: Which binding signal (log2 normalized intensity) does the source give for TTCCCTCCTGTGAACTCGCGCCCCAACGGA here?
A: -1.15

Q: Which binding signal (log2 normalized intensity) does the source give for CACTTCGCATTTCCAAAAGAAGAATGTGGC here?
A: 0.393

Q: With GAAGAGTGAGGTCACAGTATTCATTCCCCT as the sequence, how does the binding signal (log2 normalized intensity) read?
A: 1.47

Q: How did the binding signal (log2 normalized intensity) turn out when TTCTTATCTTTCTCAAGAGCAGAATCTACA was run?
A: 1.19
